The whole screen tested about 43,000 compounds, of which about 200 (0.47%) were called active. Inconclusive results (about 12%) are left out. Calls follow the shape of the dose curve; as a rule, active = well fitted cell-killing curve with a large enough effect; inconclusive = small, poorly fitted or top-dose-only effect, or effect the other way; inactive = flat fitted curve, though single readings scatter. This is one part of the list.
Assay: Cell viability qHTS assay in S16 Pmp22-F2sN cells; also: nearly all actives have a fitted effect of over 65% in size
Conditions: S16 Pmp22-F2sN Schwann cells viability, CellTiter-Glo, 24 h; series mostly up to 57.5 µM; activity change, negative = cytotoxicity: at the top concentration
Method in brief: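 S16 Pmp22-F2sN Schwann cells (500-1,000/well) in phenol-red-free DMEM with 10% FBS received 23 nL compound by pin tool for 24 h at 37 °C. Viability was then read as CellTiter-Glo luminescence after 15 min at room temperature.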
% is scaled to controls: 0 for no effect and ±100 for the full control effect.

Compound	activity change, negative = cytotoxicity
CCOC(=O)CSc1nc2c([nH]c3ccccc32)c(=O)n1-c1ccc(OC)cc1	inactive: 0.268%
COc1ccc(CN(C(=O)Nc2cccc(OC)c2)C2CCN(C(C)=O)CC2)cc1	inactive: 1.54%
COc1ccc(C2c3c(oc4ccc(Cl)cc4c3=O)C(=O)N2CCCN(C)C)cc1OC (stereo not given)	inactive: 14.8%
COc1cccc(CNC(=O)CN2C(=O)N(c3c(C)cccc3C)S(=O)(=O)c3ccccc32)c1OC	inactive: 11.6%
O=c1[nH]c2ccc(NCc3ccc(-c4ccc(Cl)cc4)o3)cc2[nH]1	inactive: 4.48%
CCOc1ccccc1Nc1nc(-c2ccc(C)cc2)c(CC(=O)O)s1	inactive: -3.85%
CCOc1ccc(NC(=O)Cn2nnc(C(=O)NCc3cccs3)c2N)cc1	inactive: 2.02%
COc1ccc2c(c1)CCc1c(C(=O)Nc3c(C)nn(Cc4ccc(Cl)cc4)c3C)noc1-2	inactive: -27.6%
CC(=O)c1ccc(Nc2nc3ccccc3nc2-n2nc(C)cc2C)cc1	inactive: -3.91%
CC(=O)c1cccc(NC(=O)Cn2c(=O)oc3cc(S(=O)(=O)NC4CCCC4)ccc32)c1	inactive: -2.59%
CC(=O)N1CCN(c2nc3c(C)ccc(Cl)c3s2)CC1	inactive: -15%
COc1cccc(NC(=O)CSc2nccn2Cc2ccc3c(c2)OCO3)c1	inactive: 12.5%
Cc1ccc(C)c(Cn2c3ccccc3c3cnn(CC(=O)NCC(C)c4ccccc4)c(=O)c32)c1 (stereo not given)	inactive: 17.3%
CCCCOC(=O)c1ccc(NC(=O)Cc2coc3c(C)c(C)ccc23)cc1	inactive: -17.2%
COC(=O)c1ccccc1NC(=O)C1(c2cccs2)CCOCC1	inactive: -9.36%
CCOC(=O)c1c(C)[nH]c(C)c1S(=O)(=O)N1CCCC(C(=O)Nc2ccc(C)c(N(C)C)c2)C1 (stereo not given)	inactive: 9.58%
CCOC(=O)c1[nH]c(C)c(CCC(=O)NCc2cccc(C)c2)c1C	inactive: -12.9%
Cc1ccc(OCC(=O)N(Cc2ccco2)c2ccccn2)cc1	inactive: 6.11%
Cc1cc(C)cc(NC(=O)c2ccc3c(O)c(S(=O)(=O)c4ccccc4)c(=O)[nH]c3c2)c1	inactive: -6.14%
COc1cc(Cl)c(C)cc1NC(=O)c1ccc(CN2C(=O)CCn3nc(C)cc32)cc1	inactive: -27.4%
Cc1c(Cl)cccc1NC(=O)CSc1ncc(S(=O)(=O)c2ccc(C(C)C)cc2)c(=O)[nH]1	inactive: 9.69%
Cc1ccc(-c2nnc(Nc3ccc(Cl)c(Cl)c3)c3ccccc23)cc1S(=O)(=O)N(C)C	inactive: 13.1%
COc1ccc(CCNS(=O)(=O)c2ccc(F)c(C(=O)Nc3ccc(Cl)cc3)c2)cc1OC	inactive: -28.6%
Cc1ccc(C(=O)N2CCN(c3ccc(F)cc3)CC2)cc1NC(=O)c1nsc2ccccc12	inactive: 3.87%

Compound	activity change, negative = cytotoxicity
Oc1c(C(c2ccccc2Cl)N2CCOCC2)sc2nc(-c3ccco3)nn12 (stereo not given)	inactive: 9.95%
CCC(=O)N1CCc2cc(CNC(=O)Nc3cc(C)ccc3C)ccc21	inactive: 1.68%
CCNC(=O)c1c(NC(=O)Cc2coc3cc(C)ccc23)sc2c1CCCC2	inactive: 5.34%
CCn1c(C(=O)NCc2ccc(OC)cc2)cc2sc(Cl)cc21	inactive: 18.7%
CCn1cc(C(=O)N2CCN(c3ccccc3)CC2)c(=O)c2cc(S(=O)(=O)N3CCCC3)ccc21	inactive: -4.02%
COc1cccc(C(=O)Nc2nc3nc(C)c(C)c(=O)n3[nH]2)c1	inactive: 5.89%
CCOc1ccc(S(=O)(=O)Nc2cccc(C)c2)c2cccnc12	inactive: 3.61%
CCc1ccccc1NC(=O)Cc1cn(C)c2ccccc12	inactive: -4.08%
Cc1ccc(Nc2ncnc3onc(C)c23)cc1Cl	inactive: -9.29%
COc1ccc(-c2nn(CC(=O)NCc3ccccc3)c3c2cnc2ccc(F)cc23)cc1	inactive: 28.6%
CCOc1ccccc1NC(=O)CN1C(=O)COc2ccc(S(=O)(=O)Nc3ccccc3)cc21	inactive: 18.7%
Cc1ccc(NC(=O)C2CCCN(S(=O)(=O)c3ccc4[nH]c(=O)ccc4c3)C2)cc1C (stereo not given)	inactive: 0.303%
CCCCN(C)CCCNC(=O)CN1C(=O)CSc2ccc(S(=O)(=O)N3CCOCC3)cc21	inactive: 3.43%
O=C(NCc1cccs1)c1nn(-c2ccccc2F)nc1CO	inactive: 3.1%
CCCCNC(=O)Cn1ncc2c(C)n(Cc3cccc(Cl)c3)c(C)c2c1=O	inactive: 2.19%
O=C(Cn1c(=O)nc(-c2ccccc2F)c2cc(Cl)ccc21)Nc1ccccc1C(F)(F)F	inactive: 0.383%
CCCC(CCC)C(=O)Nc1nnc2n1CCS2	inactive: -0.06%
Cc1cccc(N(C)C(=O)c2cc(S(=O)(=O)N3CCCCC3)c[nH]2)c1	inactive: -5.3%
COc1ccc(NC(=O)c2cc(S(=O)(=O)N3CCCCC3)cn2C)cc1Cl	inactive: 5.12%
CCc1ccc(CNC(=O)c2nn(-c3ccc(OC)c(Cl)c3)c(=O)c3c2c2ccccc2n3C)cc1	inactive: 7.71%
COc1ccc(-c2c3c(nc4sc(C(=O)Nc5ccccc5F)c(N)c24)CC(C)(C)CC3=O)cc1	inactive: 16.2%
CCN(Cc1ccccc1)C(=O)CN1C(=O)CSc2ccc(S(=O)(=O)N(CC)CC)cc21	inactive: -2.68%
COC(=O)CSc1nc2sc3c(c2c(=O)n1Cc1ccccc1)CCC(C(C)(C)C)C3 (stereo not given)	inactive: -0.141%
COc1ccccc1CCNC(=O)C(=O)NCC(c1cccs1)S(=O)(=O)c1ccc(F)cc1 (stereo not given)	inactive: 17.6%

Compound	activity change, negative = cytotoxicity
C=CCc1ccccc1OCCn1c(C2CC(=O)N(Cc3ccc(F)cc3)C2)nc2ccccc21 (stereo not given)	inactive: 10.5%
Cc1ccc(C)c(NC(=O)N2CCc3cc(S(=O)(=O)N4CCC(C)CC4)ccc32)c1	inactive: 0.804%
Cc1ccc2nc(-c3cccc(Cl)c3)c(Nc3ccc4c(c3)OCO4)n2c1	inactive: 0.844%
COc1ccccc1NC(=O)Cn1cc(C(=O)c2ccncc2)c(=O)c2cc(C)ccc21	inactive: -4.57%
COc1ccc(Cl)cc1NC(=O)C1CCN(S(=O)(=O)c2ccc3c(c2)CCCN3C(=O)C2CCC2)CC1	inactive: 18.1%
Cc1cc(=O)[nH]c2nnc(SCC(=O)Nc3ccc(F)cc3F)n12	inactive: 0.321%
Cc1ccc(NC(=O)N2CCN3CCCCC3C2)cc1F (stereo not given)	inactive: -2.2%
Cc1ccsc1CN(C(=O)c1ccc(Br)cc1)C1CCS(=O)(=O)C1 (stereo not given)	inactive: -3.38%
O=C(Nc1cccc(-c2nc3ccccc3[nH]2)c1)c1ccccc1F	inactive: -13.6%
CCc1ccc(-c2nc(SCC(=O)NCC3CCCO3)c(-c3ccc(F)cc3)[nH]2)cc1 (stereo not given)	inactive: 2.71%
CNC(=O)c1ccc(CSc2nc3cccnc3n2Cc2cccc(F)c2)cc1	inactive: -13.1%
COc1ccc(CCNc2nc(SCc3ccc(F)cc3)nc3ccccc23)cc1OC	inactive: -7.16%
CC1=C(c2ccc(C)c(C)c2)S(=O)(=O)N=C1N1CCC(C(=O)Nc2ccc(Cl)cc2)CC1	inactive: 8.43%
CCc1nn(CC(=O)N2CCN(c3cc(C)ccc3C)CC2)c(=O)c2cc3occc3n12	inactive: 2.94%
Fc1ccccc1N1CCN(c2ncc3c(n2)CCN(Cc2ccc(Br)s2)C3)CC1	inactive: 3.3%
COc1cc(NS(=O)(=O)c2cc3c(cc2C)n(C)c(=O)c(=O)n3C)cc(OC)c1	inactive: 4.28%
O=C(Nc1nnc(S(=O)(=O)N2CCOCC2)s1)c1cccc(Br)c1	inactive: -3.39%
COc1cccc(C(=O)Nc2ccc(C(=O)OCc3cc(=O)n4cc(C)sc4n3)cc2)c1	inactive: -28.2%
Cc1ccccc1C(=O)NC1(C(F)(F)F)C(=O)Nc2c1c(=O)[nH]c(=O)n2CCc1ccccc1 (stereo not given)	inactive: -2.15%
COc1ccc(-c2nc3c4ccccc4n(CC(=O)Nc4ccc(C(C)=O)cc4)c(=O)n3n2)cc1	inactive: 1.61%
Cc1nc2ccc(S(=O)(=O)NCC(=O)Nc3ccc(C)c(Cl)c3)cc2s1	inactive: 5.91%
Cc1cc(C)cc(NC(=O)CSc2nc3c(cnn3-c3ccc(F)cc3)c(=O)[nH]2)c1	inactive: 11%
COc1cc(NC(=O)NCCn2nnc3cc(S(=O)(=O)N(C)C)ccc32)cc(OC)c1OC	inactive: 10%
COc1cc(NC(=O)c2cc3cc4ccc(OC)c(Cl)c4nc3s2)cc(OC)c1	inactive: 11.4%

Compound	activity change, negative = cytotoxicity
Cc1ccc(-c2cc3ncc4c(n3n2)-c2ccccc2OC4)cc1	inactive: -4.78%
Cc1ccc(OCCSc2nc3ccccc3n2CC(=O)NC(C)C)cc1	inactive: 16.6%
O=C1CSC2(C(=O)N(Cc3c(F)cccc3Cl)c3ccccc32)N1c1ccc(F)c(F)c1 (stereo not given)	inactive: -1.8%
Cc1ccc(-c2nnn3c2nc(N2CCC(C)CC2)c2ccccc23)cc1	inactive: 7.53%
Cc1cc(SCC(=O)Nc2ccc(C(F)(F)F)cc2)nc(=O)[nH]1	inactive: -16.9%
Cc1ccc(C)c(N2CCN(C(=O)c3cccn4c(=O)c5ccccc5nc34)CC2)c1	inactive: 4.35%
CCCCOC(=O)c1ccc(NC(=O)c2cc(=O)c3ccccc3o2)cc1	inactive: 0.326%
O=C(O)CCCn1cc(NC(=O)COc2ccccc2F)cn1	inactive: -1.81%
CCc1ccc(C(=O)c2cn(CC(=O)Nc3ccc(OC)cc3)c3cc4c(cc3c2=O)OCCO4)cc1	inactive: 24.5%
O=C(Nc1ccc(OC(F)(F)F)cc1)C(NS(=O)(=O)c1cccc2nsnc12)c1ccccc1 (stereo not given)	inactive: -10.1%
COc1ccc(CCNC(=O)c2ccc(CSCc3ccc(C)cc3)o2)cc1OC	inactive: -5.79%
Cc1cccc(CSc2ccc3nnc(CCNS(=O)(=O)c4ccccc4)n3n2)c1	inactive: -22.1%
Fc1ccc(Nc2c(-c3c[nH]c4ccccc34)nc3ccccn23)cc1	inactive: 1.89%
Cc1ccc(C(=O)Nc2nnc(S(=O)(=O)N3CCCc4ccccc43)s2)cc1	inactive: 4.68%
CCc1ccc2c(c1)c(=O)c(C(=O)c1ccccc1)cn2CC(=O)Nc1ccc(C)c(Cl)c1	inactive: 1.64%
Cc1oc2ncn(CC(C)C)c(=O)c2c1C(=O)NCCCN1CCCCC1C (stereo not given)	inactive: 20.3%
CCN1CCN(C(=O)c2ccc3c(c2)N(Cc2ccc(Cl)cc2)C(=O)c2ccccc2S3=O)CC1 (stereo not given)	inactive: 19.5%
CCOc1ccc(NC(=O)c2oc3ccccc3c2NC(=O)Cc2cccs2)cc1	inactive: 6.44%
CCc1ccc(Cn2c(CNS(=O)(=O)c3ccc4c(c3)CCCC4)nc3cccnc32)cc1	inactive: -5.08%
Cc1ccc(NC(=O)CSc2nc3nccnc3c(=O)n2CCc2c[nH]c3ccccc23)c(C)c1	inactive: 2.46%
COc1ccc(-c2nnc(SCC(=O)NCCc3ccccc3)nc2-c2ccc(OC)cc2)cc1	inactive: 2.61%
CCc1ccccc1NC(=O)c1ncoc1-c1ccco1	inactive: 1.31%
Cc1ccccc1CN1c2ccccc2-c2nc(SCC(=O)Nc3cc(F)ccc3F)ncc2S1(=O)=O	inactive: 10.5%

From PubChem BioAssay AID1508642 (National Center for Advancing Translational Sciences (NCATS), 2021)
